Source: PubChem BioAssay AID1030 (National Center for Advancing Translational Sciences (NCATS), 2008)
Screen size: about 220,000 compounds; about 16,000 (7.3%) were called active. The shares of active, inactive and inconclusive entries below differ from those in the screen. The call rests on the fitted dose curve; in most records, active means well fitted inhibition curve with a large enough effect (not every such curve was filed as active); inconclusive means small, poorly fitted or top-dose-only effect, or another doubt; inactive means no such curve, though single readings can be large or run the other way. Potencies of inconclusive entries are left out as doubtful fits.
Potency means the concentration at half of the fitted maximal effect; tags describe the fitted curve by direction and shape.
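Wherever activity, negative = inhibition is given: plate controls were no enzyme wells and a reference inhibitor.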

These molecules were tested against Aldehyde dehydrogenase 1A1 (Homo sapiens) (UniProt P00352) (assay: qHTS Assay for Inhibitors of Aldehyde Dehydrogenase 1 (ALDH1A1)). Details: Purified ALDH1A1, NADH fluorescence, propionaldehyde substrate; series mostly up to 75.3 µM.
UniProt P00352, sequence (P00352 whole entry, looked up): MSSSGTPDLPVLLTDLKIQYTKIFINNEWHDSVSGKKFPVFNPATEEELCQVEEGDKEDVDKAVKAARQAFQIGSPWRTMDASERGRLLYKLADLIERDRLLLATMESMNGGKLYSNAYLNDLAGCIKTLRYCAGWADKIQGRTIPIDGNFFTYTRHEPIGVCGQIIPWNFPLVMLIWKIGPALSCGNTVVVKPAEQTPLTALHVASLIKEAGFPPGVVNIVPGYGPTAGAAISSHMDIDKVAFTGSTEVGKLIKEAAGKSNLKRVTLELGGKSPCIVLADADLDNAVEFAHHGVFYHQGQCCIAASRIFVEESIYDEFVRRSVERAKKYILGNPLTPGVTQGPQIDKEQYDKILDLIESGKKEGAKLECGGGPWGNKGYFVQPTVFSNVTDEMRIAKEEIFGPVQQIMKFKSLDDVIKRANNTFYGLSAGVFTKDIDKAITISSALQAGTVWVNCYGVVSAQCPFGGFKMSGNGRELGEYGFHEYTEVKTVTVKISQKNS
In the case of CCCC(=O)NC(c1ccc(OC)cc1)c1ccc2cccnc2c1O (configuration not stated), the Potency is reported as “inactive”. With COc1ccc(CSc2nnnn2C)cc1F the Potency was inconclusive [inhibitor, single point]. COc1ccc(C2=NOC(C(=O)NCCN3CCOCC3)C2)cc1 (configuration not stated) was tested, and the Potency was inconclusive [inhibitor, single point]. For NCC[C@H](N)C(=O)O, the activity, negative = inhibition was inactive: 8.61% [at 13.5 µM]. For COc1ccc(C(CC(=O)c2ccc(C)cc2)Nc2ccc([N+](=O)[O-])cc2)cc1 (configuration not stated), the Potency was inconclusive [inhibitor, single point]. With COc1ccc(CN(Cc2ccc(C(=O)O)cc2)C(=S)Nc2ccccc2C)cc1OC the Potency was “inactive”. In the case of CCC(Oc1ccccc1)C(=O)Nc1ncc([N+](=O)[O-])s1 (configuration not stated), the Potency is reported as inconclusive [inhibitor, single point]. O=C(CSc1ncccc1C(=O)O)c1cccc(C(F)(F)F)c1 was tested, and the Potency was inconclusive [inhibitor, single point]. For CN(C)c1ccc(/C=C(/C#N)C(=O)NCc2ccccc2)o1, the Potency was inconclusive [inhibitor, single point]. For Cc1nc(NC(=O)CSc2nnc(Cn3nnc4ccccc43)n2C)sc1C, the Potency was “inactive”. In the case of Cc1cc(C(=O)N/N=C2\CC(=O)CC(C)(C)C2)c2ccccc2n1, the Potency is reported as “inactive”. CCOc1ccc(NC(=S)Nc2ccc(C)c([N+](=O)[O-])c2)cc1 was tested, and the Potency was inconclusive [inhibitor, single point]. For COc1ccccc1N1CCN(S(=O)(=O)c2ccc(F)cc2)CC1, the Potency was inconclusive [inhibitor, single point]. In the case of CN(Cc1ccccc1)C(=C(Cl)Cl)C(=C1NCCN1)[N+](=O)[O-], the Potency is reported as inconclusive [inhibitor, single point]. COCCn1c(=O)c(-c2cccc(Cl)c2)nc2cncnc21 was tested, and the Potency was inconclusive [inhibitor, single point]. With CC1CC1c1ccc(/C=C(\C#N)C(=O)Nc2ccccc2Cl)o1 (configuration not stated) the Potency was inconclusive [inhibitor, single point]. With O=C(CCc1nnc(C2CCCCC2)o1)N1CCN(c2ccccc2F)CC1 the Potency was inconclusive [inhibitor, single point]. With O=C(C1CCCO1)N1CCN(C(=S)NC2CC2)CC1 (configuration not stated) the Potency was “inactive”. In the case of C=CCn1cc(C(=O)NCCCOCC)c(=O)c2cc(S(=O)(=O)N(CC)CC)ccc21, the Potency is reported as inconclusive [inhibitor, partial curve, poor fit]. For O=C1C2C3C=CC(C3=C3CCCCC3)C2C(=O)N1c1ccccc1 (configuration not stated), the Potency was active: 10 µM. For CC1=CC(C)C(C(=O)O)C(C(=O)Nc2cccnc2)C1 (configuration not stated), the Potency was inconclusive [inhibitor, single point]. In the case of CC(=O)NC1=NN(C(C)=O)C(c2sccc2C)S1 (configuration not stated), the Potency is reported as inconclusive [inhibitor, single point]. With N#C/C(=C/c1ccccc1)c1nn(CCO)c(N)c1C#N the Potency was inconclusive [inhibitor, single point]. In the case of Cn1ncc2c(NCCc3ccccc3)nc(Cl)nc21, the activity, negative = inhibition is reported as inactive: 5.75% [at 13.5 µM]. With COc1cc(/C=C(\C#N)c2nc3ccccc3n2C)cc(OC)c1O the Potency was inconclusive [inhibitor, single point]. With COc1ccccc1N1CCN(C(=O)c2ccc(NS(=O)(=O)c3ccc(C)cc3)cc2)CC1 the Potency was inconclusive [inhibitor, single point]. In the case of N#Cc1ccccc1CSc1nc2ccsc2c(=O)n1Cc1ccccn1, the Potency is reported as inconclusive [inhibitor, single point]. For CCC(=O)Nc1nc(=S)ss1, the Potency was active: 2 µM. Cc1ccc(Cn2c(=N)c(C#N)cc3c(=O)n4cccc(C)c4nc32)cc1 was tested, and the Potency was “inactive”. C=CCC(O)(C#Cc1ccccc1)c1ccccc1 (configuration not stated) was tested, and the Potency was “inactive”. COC(=O)c1ccc(C(NC(=O)OCc2ccccc2)/C(C)=C/[C@@H](C)C(=O)NCc2ccc(OC)c(OC)c2)cc1 (some centres not stated) was tested, and the Potency was inconclusive [inhibitor, partial curve]. For O=C(Nc1ccccc1C(F)(F)F)Nc1cccc2ccccc12, the Potency was “inactive”. With CCCCC(=O)Nc1c(O)c2ccccc2[nH]c1=O the Potency was inconclusive [inhibitor, partial curve]. For CO/N=C1/[C@H]2O[C@@H]2[C@@H](O)[C@H]2[C@H]1CCn1c(=O)n(-c3ccccc3)c(=O)n12, the activity, negative = inhibition was inactive: -5.78% [at 13.5 µM]. O=C1CC(c2ccco2)CC(O)=C1C=Nc1ccccc1-c1ccccc1 (configuration not stated) was tested, and the Potency was inconclusive [inhibitor, partial curve]. In the case of Cc1ccc(S(=O)(=O)Nc2ccccc2CNC2CCCCC2)cc1, the Potency is reported as “inactive”. With O=C(Nc1nc2c(s1)COc1ccccc1-2)c1cccs1 the Potency was inconclusive [inhibitor, single point]. With Cc1nc(NC(=O)c2ccccc2)sc1-c1csc(NCc2ccco2)n1 the Potency was inconclusive [inhibitor, single point]. With COc1ccc(/C=N/N2CCOCC2)cc1OCc1ccccc1 the Potency was inconclusive [inhibitor, single point]. For O[C@@](CCN1CCCCC1)(c1ccccc1)C1CCCCC1, the Potency was “inactive”. O=C(Cc1ccc(-n2c(=O)[nH]c3ccccc3c2=O)cc1)N1CCN(c2ccccc2)CC1 was tested, and the Potency was inconclusive [inhibitor, partial curve]. CCC1CCCCN1C(=O)c1sc2ncnc(N(CC)CC)c2c1C (configuration not stated) was tested, and the Potency was “inactive”. With COc1ccc(CSc2nc(C)cc(C)c2C#N)cc1 the Potency was inconclusive [inhibitor, single point]. CCn1cc(C(=O)O)c(=O)c2cc(F)c(N/N=C/c3ccccc3[N+](=O)[O-])cc21 was tested, and the Potency was “inactive”. In the case of Cc1ccccc1-n1sc2cc(F)ccc2c1=O, the Potency is reported as active: 0.562 µM. For O=C1c2cnc3nc(SCc4cccc(Cl)c4)nn3c2CC2c3ccccc3CCN12 (configuration not stated), the Potency was inconclusive [inhibitor, full curve]. For CCn1c(C)c(C2=CCN(S(=O)(=O)c3ccc(C)cc3)CC2)c2ccccc21, the Potency was inconclusive [inhibitor, single point].
